# Data from the BET-seq Pho4 binding data (Le et al. 2018).
# The other results are listed elsewhere or left out. These are noisy estimates, calculated here from bound and input reads.
# Target: T1, Pho4 (S. cerevisiae) (UniProt P07270)
# T1 sequence: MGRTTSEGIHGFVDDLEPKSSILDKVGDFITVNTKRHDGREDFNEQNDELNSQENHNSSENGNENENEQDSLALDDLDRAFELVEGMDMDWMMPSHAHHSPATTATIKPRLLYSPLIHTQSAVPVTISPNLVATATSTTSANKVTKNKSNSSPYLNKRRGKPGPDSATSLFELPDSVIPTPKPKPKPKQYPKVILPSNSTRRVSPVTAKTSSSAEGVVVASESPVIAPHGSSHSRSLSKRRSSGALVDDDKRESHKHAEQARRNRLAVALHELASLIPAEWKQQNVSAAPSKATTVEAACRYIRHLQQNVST
# Experiment: relative binding free energy (BET-seq); higher = weaker binding
# Settings: reference: library average
row,Sequence,relative binding free energy
1,GGTCGCACGTGGGCGT,-0.14 kcal/mol
2,TTAGACACGTGCGTAT,-0.01 kcal/mol
3,TGTTACACGTGCGTGA,0.08 kcal/mol
4,ATTGGCACGTGGGGCT,-0.13 kcal/mol
5,CATTACACGTGGGTGT,-0.11 kcal/mol
6,CATGGCACGTGGGGGC,-0.25 kcal/mol
7,CAGGGCACGTGAGGTA,0.04 kcal/mol
8,ACTGGCACGTGTATGT,-0.16 kcal/mol
9,ATTCTCACGTGGGTGA,0.04 kcal/mol
10,TTTTGCACGTGAGTTG,0.32 kcal/mol
11,GTATGCACGTGGTTGC,-0.04 kcal/mol
12,GGTGGCACGTGGAGCT,-0.01 kcal/mol
13,TGATACACGTGTAGTG,-0.08 kcal/mol
14,TTATGCACGTGTGCAA,0.12 kcal/mol
15,GTTCGCACGTGTAGAG,0.2 kcal/mol
16,TTTGACACGTGGAGGT,0.09 kcal/mol
17,GATATCACGTGGCTGT,0.11 kcal/mol
18,GTATTCACGTGATGTC,0.24 kcal/mol
19,ATAGGCACGTGGACTT,-0.04 kcal/mol
20,GGGAGCACGTGGTTCG,0 kcal/mol
21,CGGATCACGTGAGGGT,0.26 kcal/mol
22,TCTAGCACGTGGATGT,-0.01 kcal/mol
23,TTGGCCACGTGGGGAC,-0.19 kcal/mol
24,TGGGCCACGTGTTGGA,-0.08 kcal/mol
25,GTCGACACGTGGGTTG,-0.01 kcal/mol

row,Sequence,relative binding free energy
1,GTTGACACGTGAAGTT,0.16 kcal/mol
2,AGGCGCACGTGTGTTA,-0.22 kcal/mol
3,GTTCGCACGTGTGAAG,0.06 kcal/mol
4,TTGGGCACGTGTGGAC,0.02 kcal/mol
5,TCGGTCACGTGTTGGG,0.05 kcal/mol
6,CGTGGCACGTGTTGCG,-0.09 kcal/mol
7,CATGGCACGTGGGTTG,-0.28 kcal/mol
8,TCAGTCACGTGTGTAT,0.14 kcal/mol
9,CCTTTCACGTGTGGTT,0.18 kcal/mol
10,AGGATCACGTGTTGCT,0.15 kcal/mol
11,GGCGGCACGTGGCGTA,-0.16 kcal/mol
12,TTCAGCACGTGGGAGT,-0.05 kcal/mol
13,TGGGACACGTGCGCAG,-0.03 kcal/mol
14,GTTGCCACGTGTTTAG,-0.01 kcal/mol
15,CATGTCACGTGGGGTT,-0.09 kcal/mol
16,ATCTGCACGTGATGAG,0.18 kcal/mol
17,TCTGGCACGTGGCGAG,-0.09 kcal/mol
18,TTAAACACGTGGAAGG,0.03 kcal/mol
19,TAATACACGTGTAAGG,0.07 kcal/mol
20,GGGGACACGTGTTAAG,0.23 kcal/mol
21,TGTGGCACGTGCTGTT,-0.21 kcal/mol
22,AGTCGCACGTGGTCGT,-0.04 kcal/mol
23,TGGGACACGTGCAATT,0.19 kcal/mol
24,CAGAGCACGTGTGGCG,-0.03 kcal/mol
25,TAAGTCACGTGCTGAT,0.13 kcal/mol

row,Sequence,relative binding free energy
1,TTTTTCACGTGTGGCC,0.41 kcal/mol
2,GTGGACACGTGAATTG,0.31 kcal/mol
3,CTTATCACGTGGTAAT,0.1 kcal/mol
4,ATGTGCACGTGTGTGT,0.04 kcal/mol
5,GGAGGCACGTGGATGA,-0.03 kcal/mol
6,ATGAGCACGTGGGCAG,-0.26 kcal/mol
7,ATCTTCACGTGTGTGT,0.16 kcal/mol
8,GAGTGCACGTGGTGGA,0.03 kcal/mol
9,GGTGGCACGTGTTGAG,0 kcal/mol
10,ATTGTCACGTGGTGTG,-0.05 kcal/mol
11,GAATTCACGTGATTTT,0.46 kcal/mol
12,GGTGGCACGTGCGTTT,-0.02 kcal/mol
13,ATTTTCACGTGGTTAT,0.22 kcal/mol
14,TGCAGCACGTGGTGTA,-0.26 kcal/mol
15,GGGTACACGTGTCTGT,0.19 kcal/mol
16,GCGTTCACGTGTTGGC,0.37 kcal/mol
17,GGGTGCACGTGTATGC,-0.05 kcal/mol
18,AGGGACACGTGCTGTG,0.02 kcal/mol
19,TTGGGCACGTGGCCTA,-0.17 kcal/mol
20,GGGGGCACGTGTATAT,-0.07 kcal/mol
21,GTTGGCACGTGCTTTC,0.09 kcal/mol
22,ATCGGCACGTGTTTTT,0.04 kcal/mol
23,ATTGGCACGTGGCGAG,-0.22 kcal/mol
24,CGATTCACGTGTGGAG,0.25 kcal/mol
25,GTCGTCACGTGAGCTG,0.26 kcal/mol

row,Sequence,relative binding free energy
1,GTTTGCACGTGACAAG,0.25 kcal/mol
2,AACGGCACGTGTATGT,-0.04 kcal/mol
3,GGCAGCACGTGGGTTG,-0.29 kcal/mol
4,TATTGCACGTGAATTT,0.2 kcal/mol
5,GGTGTCACGTGTAATC,0.31 kcal/mol
6,TCGTGCACGTGTTAGA,-0.1 kcal/mol
7,TAGGTCACGTGTCTAG,0.17 kcal/mol
8,TGGGTCACGTGTACAA,0.22 kcal/mol
9,TAGGACACGTGTTTTC,0.1 kcal/mol
10,TTTAACACGTGGTATT,-0.02 kcal/mol
11,GTGAACACGTGTGGCT,0.1 kcal/mol
12,AGATACACGTGGGCGG,-0.06 kcal/mol
13,GTTTGCACGTGGATCA,-0.02 kcal/mol
14,AGGTCCACGTGGTTGT,0.13 kcal/mol
15,GTGTCCACGTGAATTG,0.29 kcal/mol
16,AAGGGCACGTGGCCGT,-0.24 kcal/mol
17,CAGATCACGTGTGGGT,0.18 kcal/mol
18,ACTCGCACGTGTTGTG,-0.05 kcal/mol
19,GGGGCCACGTGGATCG,-0.03 kcal/mol
20,GGGCGCACGTGTCAGG,0.05 kcal/mol
21,TGTATCACGTGGGGAT,0.16 kcal/mol
22,TGCTTCACGTGGGGGC,0.15 kcal/mol
23,TATAACACGTGGGTGG,-0.03 kcal/mol
24,TAGTTCACGTGAGGGC,0.42 kcal/mol
25,GGCAGCACGTGGTGTG,0 kcal/mol

row,Sequence,relative binding free energy
1,ATAATCACGTGGTTAT,-0.11 kcal/mol
2,ACGTGCACGTGTATTG,-0.18 kcal/mol
3,TGTAGCACGTGATAGA,-0.08 kcal/mol
4,TTAGGCACGTGGATGC,-0.3 kcal/mol
5,GTTATCACGTGGCGGT,0.11 kcal/mol
6,GTGTGCACGTGGTATG,-0.07 kcal/mol
7,ATCAGCACGTGTATTA,0.02 kcal/mol
8,TGAGCCACGTGGGGGC,-0.23 kcal/mol
9,GGGTCCACGTGGGGTC,-0.07 kcal/mol
10,TGAAGCACGTGTAGTA,-0.04 kcal/mol
11,GTTCTCACGTGGCGTG,0.15 kcal/mol
12,ATGGGCACGTGGTTAC,-0.14 kcal/mol
13,GGTAGCACGTGGGTTG,-0.13 kcal/mol
14,TAGTGCACGTGGTGGA,-0.02 kcal/mol
15,GAGCTCACGTGAGGGG,0.3 kcal/mol
16,TCTGTCACGTGTTGGG,0.22 kcal/mol
17,TGGAGCACGTGAGGGC,0.14 kcal/mol
18,GGTATCACGTGATGTC,0.24 kcal/mol
19,AAGGGCACGTGTGAGT,-0.09 kcal/mol
20,TTTCTCACGTGGGTGG,0.05 kcal/mol
21,GTATTCACGTGAAGGT,0.41 kcal/mol
22,CATGTCACGTGCTTGG,0.04 kcal/mol
23,AGGTTCACGTGGAGAA,0.3 kcal/mol
24,ATTGGCACGTGAAGGT,0.12 kcal/mol
25,GCTTGCACGTGCGGTG,0.07 kcal/mol

row,Sequence,relative binding free energy
1,TGGGGCACGTGTACGA,-0.07 kcal/mol
2,TAGTCCACGTGGGTAA,-0.03 kcal/mol
3,TTGGTCACGTGAGGCG,0.23 kcal/mol
4,TTTCCCACGTGTGTTG,-0.11 kcal/mol
5,CTTTGCACGTGGTGAA,-0.1 kcal/mol
6,GGTATCACGTGTTGTA,0.08 kcal/mol
7,TGAGACACGTGTTGCG,0.11 kcal/mol
8,AGGGTCACGTGAAGTT,0.22 kcal/mol
9,ATTCTCACGTGGGTCA,0.2 kcal/mol
10,GTTAGCACGTGAGGAG,0.23 kcal/mol
11,AAATGCACGTGGCGGA,-0.01 kcal/mol
12,CGTTGCACGTGGGCGG,-0.2 kcal/mol
13,CAGGGCACGTGAAGTT,0.17 kcal/mol
14,GTGTTCACGTGGGATA,0.25 kcal/mol
15,GTTTTCACGTGGTTAA,0.31 kcal/mol
16,CGTAGCACGTGTTGTA,-0.07 kcal/mol
17,AGTCGCACGTGTAAGT,0.03 kcal/mol
18,GGCGTCACGTGAGTCG,0.2 kcal/mol
19,AATAGCACGTGCAGTG,-0.09 kcal/mol
20,AGCGGCACGTGCGGAG,-0.15 kcal/mol
21,TTCAGCACGTGGTGTG,-0.17 kcal/mol
